# The supplement of paper PMC11417369
# The list shows a part of the results.
# System: PfHDP1 homeodomain (GST-tagged)
# Assay: gcPBM binding intensity (ln(normalized median fluorescence intensity)); higher = stronger DNA binding
# Outline: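 Plasmodium falciparum DNA-binding domains carrying a GST tag were expressed in E. coli and applied for 1 h, at about 25 μg on average, to an Agilent 4 × 180k array. The array held primer-extended double-stranded 36-bp intergenic genomic probes together with negative controls, and binding took place in 1× PBS with 1% milk, 0.2 mg/ml BSA, 0.5% salmon testes DNA and 0.03% Triton X-100. An Alexa488 anti-GST antibody detected bound protein, and the array was scanned at 488 nm. Binding intensity is taken as the highest Masliner-normalised natural-log median intensity across replicate spots of either probe orientation.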
row,Sequence,gcPBM binding intensity (ln)
1,AATTTAAAAAATAACAGTACATAAAATATATACATA [XGTACX_site7917],5.91
2,TATTGTTATTAAAAATGTACATATAAATTTCTTATT [XGTACX_site1409],6.21
3,AAAAATAAAAGGTGTGCACACAAAAATATATATATA [CACACA_site8507],10.7
4,TATTTATTCTCCAACACACACACATATATATATATA [CACACA_site2894],9.14
5,TTATAGGTGCTTCGTAGTACATAAAAATAATATATA [XGTACX_site6979],6.29
6,AAAATGAATTTAAAATGTACTTTTTCTAAAGAGTAA [XGTACX_site2337],6.06
7,TTTATATAATATGAATGTACTTATATATTTATAGAC [XGTACX_site3261],6.29
8,AAGACTCTTTGTCCTTGTACATATATTTTTATGTTT [XGTACX_site3711],6.06
9,AGTTTTATATTTCTGAGTACTTATGAATCTAGCTCG [XGTACX_site4330],6.65
10,TTGTAAAAAATTCATACACACGTCTTATTTTTAAGA [CACACA_site8390],6.21
11,ATTTTTTCTAAAAGTTGTACATTAAAACGTGTTCAC [XGTACX_site4803],6.24
12,TTTTTTTTTTTTTTTACACACATTTTAATAATTTTA [CACACA_site1492],6.58
13,CCTTTAAGCAAAAACACACACACATATATATATATA [CACACA_site348],9.26
14,TCTTCCATTTTTATTACACACATAAATATGAAATCG [CACACA_site3471],6.78
15,ACATTTTTGGTTTTAGTGCAATATGAATTATTTTAT,9.92
16,TTATTTCTAATTCGTTGTACAATATATAATATATAT [XGTACX_site5861],6.85
17,TATCCATATTTGTTCACACACACACGGATTTATATA [CACACA_site7649],6.75
18,GGAATATTATTTCAATGTACATTTTGAGATTAGAAT [XGTACX_site8187],6.91
19,ATTATTATTTTACGTAGTACATATAATAAATATTTA [XGTACX_site8934],6.01
20,TAGGTGTTAAAAAATACACACACAAAAAAAAAAAAA [CACACA_site7927],6.36
21,TTGATAGACACATGCACACATGCAATACTTTATTCA [CACACA_site3000],8.85
22,TTAGATATTAATATATGTACATATTAATATATTTAC [XGTACX_site7119],6.1
23,CACACTTTTTAAATTAACGCATTTCAAAAAAAATAT [CACACA_negctrl_site84],6.21

row,Sequence,gcPBM binding intensity (ln)
1,TTTCTTTTTTAGAGGTGTACACGTAGGCCTCTTGGA [XGTACX_site4760],6.45
2,TATTTATACACGCACACACACTTATACATTTATATA [CACACA_site7543],8.4
3,TAAATGTAAAACGAAATGCACACTATGGAAAATATA [CACACA_site724],9.19
4,TATAATTTTTACTGGGTGCACTCGATATTTTAAATA,9.68
5,TATAAAATAAAAAATATATATATGTATATATATATA [TGCATGCA_negctrl_site163],8.86
6,ATTATTTTATATACATGTACATATTATATATAAAAG [XGTACX_site2735],6.56
7,TATAAGTGCTCAACGGTGCATTTATAGAAGTTAAAC,10
8,GGTTTACCCTATAAATGTACTCATAAATTATATATA [XGTACX_site5771],6.16
9,ATACGAAATAGAAACACACATACAATAAATAAATAT [CACACA_site2017],6.83
10,TGTTCAGTATGGCACACACACAACAAAATAAAAAAA [CACACA_site4368],6.65
11,ATAAATATGGCAGTACGTACGTATATTCATATTCAT [XGTACX_site8042],6.29
12,ATTAAAAAAAAAAAAAAAAAACAAAAAAAAAAAAAA [CACACA_negctrl_site1187],5.88
13,AGTAGCAAATATTAAGTGCATATTATATAATGTGTA [GTGCAC_site9546],8.69
14,TTTTTTTTTTTTTTTTGTACATATACATATATATAT [XGTACX_site1981],8.09
15,AAAAAATATATATATATATATATGTAATATTTTTTT [XGTACX_negctrl_site439],6.68
16,TCAATGAAATTAATATGTACATATTTTTATATAGTA [XGTACX_site7955],6.37
17,TGGCAAAATAGGCACACACACATATACAGATATATT [CACACA_site4727],6.67
18,AAAACTATAAAAATTTTACACACTGTTTTTAAATAA [CACACA_site3667],6.55
19,TATATTATAATATTCACACACTAACGTAAATCATTG [CACACA_site7318],6.58
20,ATGGATTATTTTTAAACATGCAGTAGTGATGAAAAA [TGCATGCA_site346],6.42
21,AAAAAAAACATACATACACACACATAAATATATATA [CACACA_site8864],7.17
22,GTTCTTTCAAATTATACACACCAAAAAAAAAAAAAA [CACACA_site5660],6.62
23,TGATCAAGTAAGAAAAGTACAAAAAAAGTAAAAAAT [XGTACX_site6529],6.68

row,Sequence,gcPBM binding intensity (ln)
1,GATATGTTTTATTATGTTGATGATAACAGGTAGTTT [CACACA_negctrl_site356],6.48
2,ATAAGTTTTTATTTTCTGCACTGTCGAATAATAGTT,6.88
3,GCGTGTGTACAATGAGTGCATATCTAAAGGGAAGAT,9.43
4,CGGCACATTCTATATACACACATATAAATATATACA [CACACA_site566],6.97
5,TACAATTCGTAATACACACACATATAAATAAATATT [CACACA_site7720],6.82
6,TGCGGAAATAAGTGCACACATAGATATATGTATTTT [CACACA_site3689],9.48
7,ATATATATTAATAATGCATGTGATATAAATTAATAT [TGCATGCA_site930],6.75
8,ATATTATATATGTATAGTACATATTATAAGAAAAAT [XGTACX_site3457],6.45
9,ATCTATATCTATAATACACACATCATAAAATATGTA [CACACA_site7230],6.7
10,TATTAAATATATATTACATGCAAAAAAAAAAAACAA [TGCATGCA_site705],6.89
11,AATATACAAATAAAGGTGCGAGATATTTTTACTTTT,6.56
12,ACAATATGCAAAAAGTGTACACATTCATTTATATAA [XGTACX_site1061],8.53
13,ATAAAAAAAGATGAACGTACATATATTTTAAAAATC [XGTACX_site5950],6.45
14,GTAAATATTTGTTGGGTGCTATCAATTATTTCAAAG,6.29
15,ATATAAAATATGTATGAGGAATAAAATTAAAAAAAA [XGTACX_negctrl_site173],6.34
16,TTTTTTTTGAAGAATACATGCATATTTTCTATATTC [TGCATGCA_site43],6.36
17,TATATAAACATCGGTAGTACACACATTCATGTATTT [XGTACX_site6443],6.51
18,GGATCATTTTTAAAGGAACACACAAAAAAAATTATA [CACACA_site8381],6.61
19,ATTTTATATATGTGTTGTACGGTGAACATTTTGATA [XGTACX_site6538],6.71
20,ATATGTATAAATATAAATATATATATATATATATAT [CACACA_negctrl_site705],9.29
21,ACGTTAATATCTACAAGTACCCACATTAACAGGAAA [XGTACX_site2616],6.57
22,ATGATATGGATAAATACACACAATATAATAATGGGT [CACACA_site4905],6.53
23,ATATCTTATATTATCACACACACACCCACAAAACAG [CACACA_site1464],7.73

row,Sequence,gcPBM binding intensity (ln)
1,AAAAAAAACAGACACACACACATTCAATATAAAACA [CACACA_site41],6.66
2,TAATTTGTTATTTATTGTACAAACATTATATGTTAA [XGTACX_site6637],6.29
3,ATAACTAATATGAAATGTACCCATCAAAGTGTGCAT [XGTACX_site4463],6.95
4,TACTACACACATTCATGTACTTGATAAATTAATGAT [XGTACX_site6444],6.43
5,AAAATTAAAATACGTACACACCTTATCTTTTTGGCT [CACACA_site4311],6.24
6,AGAACAATTCTGTGGTGTACCAAAAAAAATTTAATT [XGTACX_site8082],6.45
7,ATATTTAAATTTTGCACACGCATATGAAATTAGGAC [CACACA_site1035],10.5
8,AAAATAAATAAATATACACACCATATTTATATTTTT [CACACA_site7361],6.44
9,TAAATGAATTTTACTATACACACGTATACATTTGTA [CACACA_site1210],6.42
10,ATATATAATTATTGAAGTACTTGTTCATAAAATGGT [XGTACX_site5656],6.53
11,AAAATAAAATGAAAACGTACATGATAAATTTTAATT [XGTACX_site4199],6.46
12,TATATGAGCATAAAGACACACAAATAAAACCAAACA [CACACA_site3856],8.25
13,ATATTATAAATATAATGTACGTTTTAATTTCATGTT [XGTACX_site3557],6.24
14,GTGTTAAATTTTTGAACATGCAAGTTTTATTATTGA [TGCATGCA_site478],6.19
15,AATGCAAAGGTGAAAGAACACACAAAAAAAAAAAAA [CACACA_site9333],6.27
16,CATAGACACGAACATACACACGGACATACATACGGA [CACACA_site8101],6.62
17,GTAACAAATTAATAGTGTACATATTTTAAAAAAATA [XGTACX_site7150],6.42
18,CACATAAAAATTGTGTTGCACTTTTATTCTTATATC,7.27
19,CTATGAATAGGAAAAAGTACTAAACCTTTATATATA [XGTACX_site5022],6.28
20,ATTTTGCCTGACCCATGTACATATTATTTTTTGCAT [XGTACX_site2258],7.57
21,AACTTACTTGGACATACACACATATATATATATATA [CACACA_site2978],9.41
22,TTTATATATTTTAGGTGTACATAAATTTTTATATAT [XGTACX_site5597],6.32
